Laboratory results as given in PubChem BioAssay AID894 (National Center for Advancing Translational Sciences (NCATS), 2007).
Among all 150,000 compounds or so, about 6,500 (4.3%) were called active. This list was built around the results that the source calls inconclusive (neither active nor inactive); the mix of calls is not that of the screen. Calls follow the shape of the dose curve; as a rule, active = well fitted inhibition curve with a large enough effect (not every such curve was filed as active); inconclusive = small, poorly fitted or top-dose-only effect, or another doubt; inactive = no such curve, though single readings can be large or run the other way. No potency is given beside an inconclusive call; the fits are too rough.

molecular target: 15-hydroxyprostaglandin dehydrogenase [NAD(+)] (Homo sapiens) (UniProt P15428); assay: qHTS Assay for Inhibitors of HPGD (15-Hydroxyprostaglandin Dehydrogenase); details: purified HPGD, NADH fluorescence kinetic, PGE2 substrate; activity change, negative = inhibition: hits give low values
Outline: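 20 nM HPGD preincubated 15 min at room temperature with compound in 50 mM Tris-HCl pH 8, 0.01% Tween 20. Started with 1 mM NAD+ and 30 uM prostaglandin E2; NADH fluorescence (360/450 nm) read 5 times over 30-s intervals, last minus first.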
% is scaled to controls: 0 for no effect and ±100 for the full control effect; potency is read from the fitted curve at half-maximal effect; tags tell the direction and shape of the fitted curve.

Sequence of UniProt P15428 (P15428 whole entry, looked up): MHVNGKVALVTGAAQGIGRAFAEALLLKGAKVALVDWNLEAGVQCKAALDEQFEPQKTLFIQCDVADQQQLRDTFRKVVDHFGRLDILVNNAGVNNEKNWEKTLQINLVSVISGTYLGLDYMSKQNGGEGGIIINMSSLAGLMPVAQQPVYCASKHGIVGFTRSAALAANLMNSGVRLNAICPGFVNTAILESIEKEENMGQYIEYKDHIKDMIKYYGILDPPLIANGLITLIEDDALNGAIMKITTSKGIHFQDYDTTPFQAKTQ

Row | Compound | Potency | activity change, negative = inhibition
1 | Cc1ccc(-c2cc(C(=O)NCCCn3ccnc3)c3cc(Br)ccc3n2)o1 | inconclusive [inhibitor, partial curve] | –
2 | O=C(Nc1cccc(S(=O)(=O)N2CCCCCC2)c1)c1ccc2c(c1)OCO2 | – | inactive: -3.03%
3 | O=C(O)CN(c1ccccn1)S(=O)(=O)c1ccc(Cl)cc1 | inconclusive [inhibitor, partial curve] | –
4 | CCOC(=O)c1nn(-c2ccc(OCC)cc2)c2nc(-c3ccco3)c(C#N)c(=O)n12 | inconclusive [inhibitor, partial curve] | –
5 | Cc1cc(C)cc(NS(=O)(=O)c2ccc3[nH]cc(C(=O)NCc4ccco4)c(=O)c3c2)c1 | – | inactive: 0.0042%
6 | Nc1ccc2oc3ccccc3c2c1 | inconclusive [inhibitor, single point] | –
7 | O=c1ccc2ccc(Oc3ccc([N+](=O)[O-])cc3[N+](=O)[O-])cc2o1 | inconclusive [inhibitor, partial curve] | –
8 | O=c1c(-c2ccccc2)nc2cnc(N3CCNCC3)nc2n1Cc1ccc(F)cc1 | inconclusive [inhibitor, single point] | –
9 | CC(=O)c1ccc(-n2c(SCC(=O)c3c[nH]c4ccccc34)nc3ccccc3c2=O)cc1 | active: 28.2 µM | –
10 | CN(C)S(=O)(=O)c1cccc(NC(=S)NN=C(Cc2ccccc2)Cc2ccccc2)c1 | – | inactive: -16.7%
11 | CNC(=O)c1cc(Cl)c(OC)c(OC)c1 | inconclusive [inhibitor, single point] | –
12 | COC(=O)c1ccc(C2/C(=C(/O)c3ccc(OC)cc3)C(=O)C(=O)N2c2cc(C)on2)cc1 (stereo not drawn) | inconclusive [inhibitor, partial curve] | –
13 | CCc1ccc(S(=O)(=O)c2n[nH]n3c2nc(=O)c2ccccc23)cc1 | inconclusive [inhibitor, partial curve] | –
14 | Cc1c2cccn2cc[n+]1C | inconclusive [inhibitor, partial curve] | –
15 | Cc1nc(N2CCOCC2)c2nc(-c3ccccc3)n(CCCN(C)C)c2n1 | inconclusive [inhibitor, partial curve] | –
16 | Cc1cc(/C=C(\C#N)C(=O)OCC(=O)Nc2ccc(OC(F)F)cc2)c(C)n1CC(C)C | inconclusive [inhibitor, partial curve] | –
17 | COc1ccc(OCC(=O)Nc2cccc(C(=O)Nc3ccccc3C(=O)O)c2)cc1 | inconclusive [inhibitor, partial curve] | –
18 | COCCNC(=O)c1onc(CSc2ccc(C(C)C)cc2)c1C(=O)O | active: 15.8 µM | –
